± gives the standard deviation of the averaged measurements. Laboratory Escherichia coli strains with one amino-acid change in an essential protein, pooled on minimal glucose agar with carbenicillin or gentamicin at twice the control MIC (plus kanamycin and chloramphenicol for the plasmids), 48 h. Fold change of barcode share against drug-free plates; higher = less susceptible. Active = above 20 in both replicates (the paper's putatively resistant). '<' = one read or none on drug, '>' = one read or none on a drug-free plate. Shares are relative, so most strains fall below 1 when a few take over. Listed are strains with at least 15 reads on both drug-free plates, and hits; most hits rest on fewer reference reads. Replicate rank correlation about 0.5. Edits are read from barcodes.
B1: tsaD L133D (protein)
chain: MRVLGIETSCDETGIAIYDDEKGLLANQLYSQVKLHADYGGVVPELASRDHVRKTVPLIQAALKESGLTAKDIDAVAYTAGPGLVGALLVGATVGRSLAFAWDVPAIPVHHMEGHLLAPMLEDNPPEFPFVADLVSGGHTQLISVTGIGQYELLGESIDDAAGEAFDKTAKLLGLDYPGGPLLSKMAAQGTAGRFVFPRPMTDRPGLDFSFSGLKTFAANTIRDNGTDDQTRADIARAFEDAVVDTLMIKCKRALDQTGFKRLVMAGGVSANRTLRAKLAEMMKKRRGEVFYARPEFCTDNGAMIAYAGMVRFKAGATADLGVSVRPRWPLAELPAA
B2: tsaD L134Q (protein)
chain: MRVLGIETSCDETGIAIYDDEKGLLANQLYSQVKLHADYGGVVPELASRDHVRKTVPLIQAALKESGLTAKDIDAVAYTAGPGLVGALLVGATVGRSLAFAWDVPAIPVHHMEGHLLAPMLEDNPPEFPFVALQVSGGHTQLISVTGIGQYELLGESIDDAAGEAFDKTAKLLGLDYPGGPLLSKMAAQGTAGRFVFPRPMTDRPGLDFSFSGLKTFAANTIRDNGTDDQTRADIARAFEDAVVDTLMIKCKRALDQTGFKRLVMAGGVSANRTLRAKLAEMMKKRRGEVFYARPEFCTDNGAMIAYAGMVRFKAGATADLGVSVRPRWPLAELPAA
B3: tsaD L134P (protein)
chain: MRVLGIETSCDETGIAIYDDEKGLLANQLYSQVKLHADYGGVVPELASRDHVRKTVPLIQAALKESGLTAKDIDAVAYTAGPGLVGALLVGATVGRSLAFAWDVPAIPVHHMEGHLLAPMLEDNPPEFPFVALPVSGGHTQLISVTGIGQYELLGESIDDAAGEAFDKTAKLLGLDYPGGPLLSKMAAQGTAGRFVFPRPMTDRPGLDFSFSGLKTFAANTIRDNGTDDQTRADIARAFEDAVVDTLMIKCKRALDQTGFKRLVMAGGVSANRTLRAKLAEMMKKRRGEVFYARPEFCTDNGAMIAYAGMVRFKAGATADLGVSVRPRWPLAELPAA
B4: tsaD M265A (protein)
chain: MRVLGIETSCDETGIAIYDDEKGLLANQLYSQVKLHADYGGVVPELASRDHVRKTVPLIQAALKESGLTAKDIDAVAYTAGPGLVGALLVGATVGRSLAFAWDVPAIPVHHMEGHLLAPMLEDNPPEFPFVALLVSGGHTQLISVTGIGQYELLGESIDDAAGEAFDKTAKLLGLDYPGGPLLSKMAAQGTAGRFVFPRPMTDRPGLDFSFSGLKTFAANTIRDNGTDDQTRADIARAFEDAVVDTLMIKCKRALDQTGFKRLVAAGGVSANRTLRAKLAEMMKKRRGEVFYARPEFCTDNGAMIAYAGMVRFKAGATADLGVSVRPRWPLAELPAA
B5: tsaD M265Q (protein)
chain: MRVLGIETSCDETGIAIYDDEKGLLANQLYSQVKLHADYGGVVPELASRDHVRKTVPLIQAALKESGLTAKDIDAVAYTAGPGLVGALLVGATVGRSLAFAWDVPAIPVHHMEGHLLAPMLEDNPPEFPFVALLVSGGHTQLISVTGIGQYELLGESIDDAAGEAFDKTAKLLGLDYPGGPLLSKMAAQGTAGRFVFPRPMTDRPGLDFSFSGLKTFAANTIRDNGTDDQTRADIARAFEDAVVDTLMIKCKRALDQTGFKRLVQAGGVSANRTLRAKLAEMMKKRRGEVFYARPEFCTDNGAMIAYAGMVRFKAGATADLGVSVRPRWPLAELPAA
B6: tsaD M265P (protein)
chain: MRVLGIETSCDETGIAIYDDEKGLLANQLYSQVKLHADYGGVVPELASRDHVRKTVPLIQAALKESGLTAKDIDAVAYTAGPGLVGALLVGATVGRSLAFAWDVPAIPVHHMEGHLLAPMLEDNPPEFPFVALLVSGGHTQLISVTGIGQYELLGESIDDAAGEAFDKTAKLLGLDYPGGPLLSKMAAQGTAGRFVFPRPMTDRPGLDFSFSGLKTFAANTIRDNGTDDQTRADIARAFEDAVVDTLMIKCKRALDQTGFKRLVPAGGVSANRTLRAKLAEMMKKRRGEVFYARPEFCTDNGAMIAYAGMVRFKAGATADLGVSVRPRWPLAELPAA
B7: tsaD I305A (protein)
chain: MRVLGIETSCDETGIAIYDDEKGLLANQLYSQVKLHADYGGVVPELASRDHVRKTVPLIQAALKESGLTAKDIDAVAYTAGPGLVGALLVGATVGRSLAFAWDVPAIPVHHMEGHLLAPMLEDNPPEFPFVALLVSGGHTQLISVTGIGQYELLGESIDDAAGEAFDKTAKLLGLDYPGGPLLSKMAAQGTAGRFVFPRPMTDRPGLDFSFSGLKTFAANTIRDNGTDDQTRADIARAFEDAVVDTLMIKCKRALDQTGFKRLVMAGGVSANRTLRAKLAEMMKKRRGEVFYARPEFCTDNGAMAAYAGMVRFKAGATADLGVSVRPRWPLAELPAA
B8: tsaD I305W (protein)
chain: MRVLGIETSCDETGIAIYDDEKGLLANQLYSQVKLHADYGGVVPELASRDHVRKTVPLIQAALKESGLTAKDIDAVAYTAGPGLVGALLVGATVGRSLAFAWDVPAIPVHHMEGHLLAPMLEDNPPEFPFVALLVSGGHTQLISVTGIGQYELLGESIDDAAGEAFDKTAKLLGLDYPGGPLLSKMAAQGTAGRFVFPRPMTDRPGLDFSFSGLKTFAANTIRDNGTDDQTRADIARAFEDAVVDTLMIKCKRALDQTGFKRLVMAGGVSANRTLRAKLAEMMKKRRGEVFYARPEFCTDNGAMWAYAGMVRFKAGATADLGVSVRPRWPLAELPAA
B9: tsaD I305Q (protein)
chain: MRVLGIETSCDETGIAIYDDEKGLLANQLYSQVKLHADYGGVVPELASRDHVRKTVPLIQAALKESGLTAKDIDAVAYTAGPGLVGALLVGATVGRSLAFAWDVPAIPVHHMEGHLLAPMLEDNPPEFPFVALLVSGGHTQLISVTGIGQYELLGESIDDAAGEAFDKTAKLLGLDYPGGPLLSKMAAQGTAGRFVFPRPMTDRPGLDFSFSGLKTFAANTIRDNGTDDQTRADIARAFEDAVVDTLMIKCKRALDQTGFKRLVMAGGVSANRTLRAKLAEMMKKRRGEVFYARPEFCTDNGAMQAYAGMVRFKAGATADLGVSVRPRWPLAELPAA
B10: tsaD I305D (protein)
chain: MRVLGIETSCDETGIAIYDDEKGLLANQLYSQVKLHADYGGVVPELASRDHVRKTVPLIQAALKESGLTAKDIDAVAYTAGPGLVGALLVGATVGRSLAFAWDVPAIPVHHMEGHLLAPMLEDNPPEFPFVALLVSGGHTQLISVTGIGQYELLGESIDDAAGEAFDKTAKLLGLDYPGGPLLSKMAAQGTAGRFVFPRPMTDRPGLDFSFSGLKTFAANTIRDNGTDDQTRADIARAFEDAVVDTLMIKCKRALDQTGFKRLVMAGGVSANRTLRAKLAEMMKKRRGEVFYARPEFCTDNGAMDAYAGMVRFKAGATADLGVSVRPRWPLAELPAA
B11: tsaD I305P (protein)
chain: MRVLGIETSCDETGIAIYDDEKGLLANQLYSQVKLHADYGGVVPELASRDHVRKTVPLIQAALKESGLTAKDIDAVAYTAGPGLVGALLVGATVGRSLAFAWDVPAIPVHHMEGHLLAPMLEDNPPEFPFVALLVSGGHTQLISVTGIGQYELLGESIDDAAGEAFDKTAKLLGLDYPGGPLLSKMAAQGTAGRFVFPRPMTDRPGLDFSFSGLKTFAANTIRDNGTDDQTRADIARAFEDAVVDTLMIKCKRALDQTGFKRLVMAGGVSANRTLRAKLAEMMKKRRGEVFYARPEFCTDNGAMPAYAGMVRFKAGATADLGVSVRPRWPLAELPAA
B12: carA L209A (protein)
chain: MIKSALLVLEDGTQFHGRAIGATGSAVGEVVFNTSMTGYQEILTDPSYSRQIVTLTYPHIGNVGTNDADEESSQVHAQGLVIRDLPLIASNFRNTEDLSSYLKRHNIVAIADIDTRKLTRLLREKGAQNGCIIAGDNPDAALALEKARAFPGLNGMDLAKEVTTAEAYSWTQGSWTLTGGLPEAKKEDELPFHVVAYDFGAKRNILRMAVDRGCRLTIVPAQTSAEDVLKMNPDGIFLSNGPGDPAPCDYAITAIQKFLETDIPVFGICLGHQLLALASGAKTVKMKFGHHGGNHPVKDVEKNVVMITAQNHGFAVDEATLPANLRVTHKSLFDGTLQGIHRTDKPAFSFQGHPEASPGPHDAAPLFDHFIELIEQYRKTAK
B13: carA L209W (protein)
chain: MIKSALLVLEDGTQFHGRAIGATGSAVGEVVFNTSMTGYQEILTDPSYSRQIVTLTYPHIGNVGTNDADEESSQVHAQGLVIRDLPLIASNFRNTEDLSSYLKRHNIVAIADIDTRKLTRLLREKGAQNGCIIAGDNPDAALALEKARAFPGLNGMDLAKEVTTAEAYSWTQGSWTLTGGLPEAKKEDELPFHVVAYDFGAKRNILRMWVDRGCRLTIVPAQTSAEDVLKMNPDGIFLSNGPGDPAPCDYAITAIQKFLETDIPVFGICLGHQLLALASGAKTVKMKFGHHGGNHPVKDVEKNVVMITAQNHGFAVDEATLPANLRVTHKSLFDGTLQGIHRTDKPAFSFQGHPEASPGPHDAAPLFDHFIELIEQYRKTAK

Molecular target: Escherichia coli (laboratory strain)
Assay: barcode share on antibiotic plates over drug-free plates; higher = less susceptible
Description: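 A pool of E. coli strains, each edited to carry one amino-acid change in an essential protein, was grown for 48 h on minimal glucose agar with or without antibiotic; strain barcodes were sequenced; mean of two replicates.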

[1] = antibiotic: carbenicillin, 2× MIC (3.1 µg/mL)
[2] = antibiotic: gentamicin, 2× MIC (MIC 0.45 µg/mL)

Protein | fold change of barcode share [1] | fold change of barcode share [2]
B1 | 0.295 ± 0.21 | < 0.0106
B2 | 0.213 ± 0.082 | 0.00352 ± 0.0012
B3 | 0.422 ± 0.25 | < 0.00389
B4 | 0.237 ± 0.042 | < 0.00241
B5 | 0.27 ± 0.09 | 0.00525 ± 0.0018
B6 | 0.249 ± 0.088 | 0.00308 ± 0.002
B7 | 0.329 ± 0.046 | < 0.00782
B8 | 0.186 ± 0.092 | < 0.0129
B9 | 0.393 ± 0.078 | 0.00787 ± 0.0026
B10 | 0.485 ± 0.11 | 0.0124 ± 0.008
B11 | 0.228 ± 0.12 | 0.00909 ± 0.0038
B12 | 0.564 ± 0.08 | 0.008 ± 0.0011
B13 | 0.426 ± 0.12 | 0.0223 ± 0.0075

From the supplement of paper PMC11876631
